# Measurements from the antibiotic and cytotoxicity screens of Wong et al. (2023).
# The other results are listed elsewhere or left out.
# System: HSkMC (human skeletal muscle cells)
# Experiment: cytotoxicity call (relative viability < 0.9)
# Conditions: 10 µM
row,SMILES,cytotoxicity call
1,COCC(=O)Nc1ccc2c(c1)OC[C@@H](C)N(C(=O)Cc1ccccn1)C[C@H](C)[C@@H](OC)CN(C)C2=O,inactive
2,C[C@@H]1CCCCO[C@@H](CN(C)C(=O)Nc2ccccc2)[C@@H](C)CN([C@H](C)CO)C(=O)c2cc(NS(=O)(=O)c3cccs3)ccc2O1,inactive
3,COc1ccc2c3c([nH]c2c1)[C@H](CO)N(C[C@]13CCN(CC1)CC1CCCCC1)C(=O)Nc1c(noc1C)C,inactive
4,C[C@H](CO)N1C[C@H](C)[C@H](CN(C)C(=O)Nc2cccc3ccccc23)OCCCC[C@H](C)Oc2ccc(NS(=O)(=O)c3cn(C)cn3)cc2C1=O,inactive
5,CCCC#Cc1cnc2c(c1)C(=O)N([C@H](C)CO)C[C@H](C)[C@@H](CN(C)S(=O)(=O)c1cccc(OC)c1)O2,inactive
6,C[C@@H]1CN([C@H](C)CO)S(=O)(=O)c2ccc(C#Cc3ccc(F)cc3)cc2O[C@H]1CN(C)S(=O)(=O)c1cn(C)cn1,inactive
7,C[C@H]1CN([C@@H](C)CO)C(=O)CCCn2nncc2CO[C@@H]1CN(C)S(=O)(=O)c1ccc(C#N)cc1,inactive
8,CCS(=O)(=O)N1CC[C@]2(CC1)CN([C@@H](CO)c1[nH]c3cc(ccc3c12)OC)C(=O)Cc1ccccn1,inactive
9,C[C@@H]1CN([C@H](C)CO)C(=O)c2cccc(NC(=O)Nc3ccccc3)c2O[C@H]1CN(C)Cc1ccc(Cl)c(Cl)c1,inactive
10,CC1=NNc2nc3c(c(=O)n(C)c(=O)n3C)n2C1,inactive
11,C[C@@H]1CN([C@H](C)CO)S(=O)(=O)c2ccc(-c3cncnc3)cc2O[C@@H]1CN(C)C(=O)c1cccc(F)c1,inactive
12,C[C@@H]1CN([C@@H](C)CO)C(=O)c2cccc(NS(=O)(=O)c3cccs3)c2O[C@@H]1CN(C)S(=O)(=O)c1ccccc1,inactive
13,COCCNC(=O)C[C@@H]1C[C@H]2c3cc(NC(=O)CN(C)C)ccc3O[C@H]2[C@@H](CO)O1,inactive
14,COCC(=O)N(C)C[C@H]1Oc2cc(-c3ccc(C#N)cc3)ccc2S(=O)(=O)N([C@H](C)CO)C[C@H]1C,inactive
15,Cc1ccc(S(N)(=O)=O)cc1,inactive
16,CO[C@@H]1CN(C)C(=O)c2cc(NC(=O)Nc3cccc(F)c3)ccc2OC[C@H](C)N(C(=O)Nc2c(C)noc2C)C[C@@H]1C,inactive
17,C[C@@H]1CN([C@H](C)CO)C(=O)c2cc(NS(=O)(=O)c3ccccc3)ccc2O[C@@H](C)CCCCO[C@@H]1CN(C)S(=O)(=O)c1ccc(Cl)cc1,inactive
18,C[C@@H]1CN([C@@H](C)CO)C(=O)c2cc(NC(=O)Cn3cnnn3)ccc2O[C@H]1CN(C)Cc1ccccc1,inactive
19,COc1ccc(S(=O)(=O)N(C)C[C@@H]2Oc3cc(C4=CCCC4)ccc3S(=O)(=O)N([C@@H](C)CO)C[C@H]2C)cc1,inactive
20,CC(C)NC(=O)N(C)C[C@H]1OCCCC[C@@H](C)Oc2ccc(NS(C)(=O)=O)cc2C(=O)N([C@@H](C)CO)C[C@H]1C,inactive
21,Cn1cnc(S(=O)(=O)N[C@H]2C=C[C@@H](CC(=O)NCC3CC3)O[C@H]2CO)c1,inactive
22,COc1ccc2c3c([nH]c2c1)[C@H](CO)N(C[C@]13CN(C1)S(=O)(=O)C)C(=O)C1CC1,inactive
23,C[C@@H]1CN([C@@H](C)CO)C(=O)c2cc(NS(=O)(=O)c3cccs3)ccc2O[C@@H](C)CCCCO[C@@H]1CN(C)C(=O)CCC(F)(F)F,inactive
24,CON=C(C(=O)NC1C(=O)N2C(C(=O)OC(C)OC(C)=O)=C(COC(N)=O)CSC12)c1ccco1 (centres undefined),inactive
25,Cc1noc(C)c1S(=O)(=O)Nc1ccc2c(c1)C(=O)N([C@@H](C)CO)C[C@@H](C)[C@@H](CN(C)S(=O)(=O)c1cn(C)cn1)O2,inactive
26,Cc1noc(C)c1S(=O)(=O)Nc1cccc2c1O[C@@H](CN(C)S(=O)(=O)c1ccc(Cl)cc1)[C@@H](C)CN([C@@H](C)CO)C2=O,inactive
27,C[C@H]1CCCCO[C@H](CN(C)S(=O)(=O)c2cccs2)[C@@H](C)CN([C@@H](C)CO)C(=O)c2cc(NC(=O)Nc3ccc(F)cc3)ccc2O1,inactive
28,COCC(=O)Nc1ccc2c(c1)C(=O)N(C)C[C@@H](OC)[C@H](C)CN(Cc1ccccc1OC)[C@@H](C)CO2,inactive
29,C[C@@H]1CN([C@H](C)CO)C(=O)c2cc(NS(=O)(=O)c3cn(C)cn3)ccc2O[C@@H]1CN(C)S(=O)(=O)c1ccc(F)cc1,inactive
